The record followed here is US20080075796A1, “Compositions and Methods for Controlling Insects” (TyraTech, Inc., priority 2003, published 2008).

In general, EC50 refers to the midpoint of the concentration-response curve. A high value points to lower potency in that assay. By Ki is commonly meant the equilibrium dissociation constant of an inhibitor or competing ligand from its target. The low end stands for higher affinity, the high end for lower affinity.

The assay deals with T1, tyramine receptor (TyrR) (Drosophila melanogaster, UniProt P22270).
T1 sequence (P22270 27-601): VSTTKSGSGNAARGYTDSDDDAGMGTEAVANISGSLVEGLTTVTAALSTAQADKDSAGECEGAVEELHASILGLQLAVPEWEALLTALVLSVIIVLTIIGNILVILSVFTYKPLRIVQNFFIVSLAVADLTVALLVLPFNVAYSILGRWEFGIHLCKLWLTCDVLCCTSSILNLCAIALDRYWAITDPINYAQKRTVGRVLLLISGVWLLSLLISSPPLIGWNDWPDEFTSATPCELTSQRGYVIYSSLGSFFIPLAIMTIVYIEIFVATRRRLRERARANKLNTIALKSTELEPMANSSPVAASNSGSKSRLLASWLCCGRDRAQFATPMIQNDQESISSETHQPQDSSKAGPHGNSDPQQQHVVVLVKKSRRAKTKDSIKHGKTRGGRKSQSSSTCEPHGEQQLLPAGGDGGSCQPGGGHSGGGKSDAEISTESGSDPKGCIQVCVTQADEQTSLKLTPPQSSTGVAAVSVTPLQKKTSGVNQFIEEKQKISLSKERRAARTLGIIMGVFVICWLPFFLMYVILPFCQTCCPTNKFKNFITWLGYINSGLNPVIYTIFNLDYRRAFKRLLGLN
Particulars: displacement of about 2 nM ^3H-tyramine.

As for `NCCc1c[nH]c2ccc(O)cc12` [Serotonin (SE), Serotonin], the concentration giving a half-maximal response (EC50) (EC50 (concentration at which binding is inhibited by 50%)) came to 23.3 µM. Further, the affinity (Ki), expressed as Ki, was 8.95 µM.
